# Article PMC6919601, “Identification of Plasmodium dipeptidyl aminopeptidase allosteric inhibitors by high throughput screening” (PLoS ONE, 2019)
# Out of some 110,000 compounds screened, about 230 (0.21%) showed an effect of 50% or more. This is one part of the list.
# Target: DPAP1 (Plasmodium falciparum, UniProt Q8IIJ9)
# Assay: primary screen, percent inhibition; read by cleavage of a fluorogenic dipeptide substrate; higher = more effect of the substance
# Parameters: species or system P. falciparum D10 trophozoite lysates; single well
# 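Further: 30 min substrate incubation versus DMSO and 10 µM JCP410 controls.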
# Chain of DPAP1 (Q8IIJ9 whole entry, looked up): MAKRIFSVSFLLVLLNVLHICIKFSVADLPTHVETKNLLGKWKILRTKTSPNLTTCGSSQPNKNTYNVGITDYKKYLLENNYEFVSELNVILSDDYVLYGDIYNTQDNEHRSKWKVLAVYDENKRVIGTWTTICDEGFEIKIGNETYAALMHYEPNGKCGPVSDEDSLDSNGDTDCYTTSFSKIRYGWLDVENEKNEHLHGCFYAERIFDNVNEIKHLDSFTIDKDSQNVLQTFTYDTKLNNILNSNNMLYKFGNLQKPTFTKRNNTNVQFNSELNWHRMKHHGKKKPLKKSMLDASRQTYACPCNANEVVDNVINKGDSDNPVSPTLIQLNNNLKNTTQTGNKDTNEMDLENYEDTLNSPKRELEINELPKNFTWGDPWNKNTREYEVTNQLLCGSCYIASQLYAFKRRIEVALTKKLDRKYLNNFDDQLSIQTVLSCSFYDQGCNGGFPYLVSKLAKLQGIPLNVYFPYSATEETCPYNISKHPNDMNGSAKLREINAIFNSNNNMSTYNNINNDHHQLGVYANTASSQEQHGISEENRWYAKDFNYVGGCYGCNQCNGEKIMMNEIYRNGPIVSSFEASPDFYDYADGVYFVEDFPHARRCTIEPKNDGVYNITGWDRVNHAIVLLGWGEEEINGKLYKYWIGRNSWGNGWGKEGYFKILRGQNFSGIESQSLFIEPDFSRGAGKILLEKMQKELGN
row,Structure (SMILES),% Inhibition @ 10 uM [%]
1,COc1cc(/C=C2\C(C)=C([N+](=O)[O-])CS2(=O)=O)ccc1O,4.16
2,O=C(NC1CCCCC1)C1=Cc2sc3c(c2CS1)CCCC3,14.1
3,CCOc1ccc(C(=O)NCc2ccc(Cl)cc2)cc1OCC,1.89
4,CC(C)C[C@H](NS(=O)(=O)c1ccc(-c2ccco2)cc1)C(=O)NCC#N,1.35
5,c1ccc(NCc2ccc3c(c2)OCO3)nc1,-5.51
6,CCCCNC(=S)N1CCn2cccc2C1c1cc(OC)ccc1OC (stereo not shown),8.84
7,COc1ccc(C2NC(=O)NC(C)=C2C(=O)OCCc2ccccc2)cc1 (stereo not shown),-1.03
8,O=C(c1ccccc1Cl)N1CCN(c2ccc(F)cc2)CC1,-4.3
9,N#CCNC(=O)[C@@H]1CCCC[C@@H]1CS(=O)(=O)c1ccc(S(=O)(=O)CCc2ccccc2)cc1,-1.41
10,Cc1ccc(-n2nc3c(N4CCCC(C(=O)NCc5ccccc5)C4)nnc(C)c3c2C)cc1 (stereo not shown),9.2
11,CN(Cc1ccccc1)C(CNS(=O)(=O)c1ccccc1)c1ccccc1 (stereo not shown),-0.671
12,CC1=C(C#N)C(=O)N(C)C(=O)/C1=C\Nc1cccc2nsnc12,-0.413
13,Cc1sc2ncnc(SCC(=O)c3cc(C)n(CC4CCCO4)c3C)c2c1C (stereo not shown),30.2
14,O=C(c1ccc(COc2ccc(Cl)cc2Cl)o1)N1CCCC1,-2.66
15,Cc1c(C(=O)NCCc2ccc(Cl)cc2)oc2ccc3c(c12)C(O)CC(C)(C)O3 (stereo not shown),-4.97
16,O=S(=O)(c1ccc(Cl)cc1)N1CCN(C/C=C/c2ccccc2)CC1,-2.7
17,Cc1cccc(NC(=O)C2CC2(c2ccccc2)c2ccccc2)c1 (stereo not shown),-1.74
18,CC1=C(C(=O)Nc2ccc(Cl)cc2)C(c2ccccc2Br)NC(=O)N1 (stereo not shown),-3.01
19,COc1ccc(C2CC(c3ccccc3)=NN2C(C)=O)cc1 (stereo not shown),-7.15
20,Cc1ccc(-c2onc(C)c2C)cc1S(=O)(=O)NC1CCCc2ccccc21 (stereo not shown),3.03
21,c1ccc(N2CCN(Cc3ccc4ccccc4c3)CC2)nc1,-7.42
22,CC1CN(Cc2ccc(F)cc2)CC(C)O1 (stereo not shown),-0.636
23,COc1cccc2cc(C(=O)Nc3nc(-c4ccccc4)cs3)c(=O)oc12,1.95
24,COCCCNC(=O)c1nn(C)c2c1CSc1ccccc1-2,9.28
25,CCc1ccc(C2=CC(c3ccccc3C)n3nnnc3N2)cc1 (stereo not shown),-1.62
26,O=C(Cn1ncc2ccsc2c1=O)N1CCN(Cc2ccccc2)CC1,-1.43
27,CC(C)CCNC(=O)C(=O)NCc1ccccc1Cl,4.69
28,CCN(CC)C(=O)C1CCCN(Cc2cc(Br)c(OC)cc2OC)C1 (stereo not shown),0.605
